{
  "source": "the supplement of paper PMC4166925",
  "note": "± gives the standard deviation of the averaged measurements. Whole data set: some 33,000 sequences, median “E-score (dimensionless, -0.5 to 0.5)” near -0.046, cut for the highest 2% near 0.36. This is one part of the list.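 Also: protein at 200 nM in PBS on universal double-stranded arrays.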",
  "data": [
    {"system": "T1, SpTbr T-box DNA-binding domain (GST fusion)", "T1 sequence": "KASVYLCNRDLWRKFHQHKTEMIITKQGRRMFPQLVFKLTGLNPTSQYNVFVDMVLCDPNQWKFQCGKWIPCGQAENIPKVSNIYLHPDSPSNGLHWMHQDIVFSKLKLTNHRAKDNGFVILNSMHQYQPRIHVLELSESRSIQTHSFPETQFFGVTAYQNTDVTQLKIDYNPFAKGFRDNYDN", "assay": "PBM E-score of 8-mer (E-score (dimensionless, -0.5 to 0.5)); Tbr is Tbrain of the sea star Patiria miniata (Pm) or the sea urchin Strongylocentrotus purpuratus (Sp); higher = stronger binding preference; most listed sequences are background and not binding sites", "conditions": "the construct has about 5 more residues each side", "experimental": "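Universal protein-binding microarray (Agilent AMADID 016060, 60-bp probes with a 35-bp variable region) incubated with 200 nM GST-fused Strongylocentrotus purpuratus Tbr T-box DNA-binding domain (residues 362-554) in PBS pH 7.5. Scored for every ungapped 8-mer (given with its reverse complement) as E-score (range -0.5 to 0.5; >0.45 counts as bound) and Z-score of median probe intensity. Two replicate arrays (datasets 1 and 2).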", "values": [
      {"sequence": "TCATCCAA", "PBM E-score of 8-mer": "0.0902 ± 0.048"},
      {"sequence": "AATGAACT", "PBM E-score of 8-mer": "-0.234 ± 0.022"},
      {"sequence": "CTGTTAGC", "PBM E-score of 8-mer": "0.207 ± 0.02"},
      {"sequence": "GCGGGAGA", "PBM E-score of 8-mer": "0.00441 ± 0.0052"},
      {"sequence": "ACTAAATC", "PBM E-score of 8-mer": "-0.139 ± 0.0051"},
      {"sequence": "CAGTATAG", "PBM E-score of 8-mer": "-0.042 ± 0.02"},
      {"sequence": "AAAGATGA", "PBM E-score of 8-mer": "-0.148 ± 0.012"},
      {"sequence": "CACACGGC", "PBM E-score of 8-mer": "0.151 ± 0.069"},
      {"sequence": "CAATCACC", "PBM E-score of 8-mer": "0.0938 ± 0.039"},
      {"sequence": "AAGATGAC", "PBM E-score of 8-mer": "0.15 ± 0.03"},
      {"sequence": "AGATTGAG", "PBM E-score of 8-mer": "-0.0733 ± 0.0032"},
      {"sequence": "GGAAGTGA", "PBM E-score of 8-mer": "0.29 ± 0.0042"},
      {"sequence": "CGCGCGCC", "PBM E-score of 8-mer": "0.173 ± 0.064"},
      {"sequence": "CAAAACGC", "PBM E-score of 8-mer": "-0.109 ± 0.0029"},
      {"sequence": "ATAAGTAC", "PBM E-score of 8-mer": "-0.246 ± 0.026"},
      {"sequence": "ACAGAGGC", "PBM E-score of 8-mer": "0.0708 ± 0.05"},
      {"sequence": "CCAAGGCG", "PBM E-score of 8-mer": "0.197 ± 0.036"},
      {"sequence": "ATTAAGGG", "PBM E-score of 8-mer": "-0.186 ± 0.0053"},
      {"sequence": "GACACCGC", "PBM E-score of 8-mer": "0.244 ± 0.061"},
      {"sequence": "CCGCAGAC", "PBM E-score of 8-mer": "-0.143 ± 0.042"},
      {"sequence": "CGTTTTTC", "PBM E-score of 8-mer": "-0.018 ± 0.028"},
      {"sequence": "TGAGTGCA", "PBM E-score of 8-mer": "-0.219 ± 0.07"},
      {"sequence": "AAGAAGGA", "PBM E-score of 8-mer": "0.0222 ± 0.048"},
      {"sequence": "GAGTCAAC", "PBM E-score of 8-mer": "0.0904 ± 0.024"},
      {"sequence": "AAGGATAT", "PBM E-score of 8-mer": "-0.236 ± 0.025"},
      {"sequence": "AATTAGGA", "PBM E-score of 8-mer": "-0.00968 ± 0.088"},
      {"sequence": "AATTTTTA", "PBM E-score of 8-mer": "-0.111 ± 0.084"},
      {"sequence": "AACACCCG", "PBM E-score of 8-mer": "0.404 ± 0.01"},
      {"sequence": "ACACCGCA", "PBM E-score of 8-mer": "0.175 ± 0.021"},
      {"sequence": "CCCGCAAG", "PBM E-score of 8-mer": "-0.104 ± 0.055"},
      {"sequence": "ACACGTAC", "PBM E-score of 8-mer": "0.331 ± 0.0064"},
      {"sequence": "CAACGGTC", "PBM E-score of 8-mer": "0.11 ± 0.036"},
      {"sequence": "AGAGGCGA", "PBM E-score of 8-mer": "0.125 ± 0.098"},
      {"sequence": "AGAGGCAA", "PBM E-score of 8-mer": "-0.0855 ± 0.046"},
      {"sequence": "GAGCAATC", "PBM E-score of 8-mer": "-0.198 ± 0.095"},
      {"sequence": "GGAGGCCA", "PBM E-score of 8-mer": "-0.297 ± 0.036"},
      {"sequence": "ACCTTCTA", "PBM E-score of 8-mer": "0.0656 ± 0.0091"},
      {"sequence": "GCCCCATA", "PBM E-score of 8-mer": "-0.112 ± 0.064"},
      {"sequence": "GCTAGGAA", "PBM E-score of 8-mer": "-0.0544 ± 0.06"},
      {"sequence": "CCTACGCG", "PBM E-score of 8-mer": "0.175 ± 0.0086"},
      {"sequence": "AGTGCTCG", "PBM E-score of 8-mer": "-0.00167 ± 0.023"},
      {"sequence": "CCAACAGA", "PBM E-score of 8-mer": "0.00743 ± 0.094"},
      {"sequence": "CACCTACC", "PBM E-score of 8-mer": "0.394 ± 0.01"},
      {"sequence": "CAGAAAAA", "PBM E-score of 8-mer": "-0.204 ± 0.0081"},
      {"sequence": "CGGGTTTA", "PBM E-score of 8-mer": "-0.109 ± 0.055"},
      {"sequence": "AGCGGGGA", "PBM E-score of 8-mer": "-0.0886 ± 0.064"},
      {"sequence": "ACACCGCT", "PBM E-score of 8-mer": "0.187 ± 0.033"},
      {"sequence": "CATTCTAG", "PBM E-score of 8-mer": "-0.179 ± 0.09"},
      {"sequence": "ATCTCGAG", "PBM E-score of 8-mer": "-0.0365 ± 0.083"},
      {"sequence": "GGGCTAAA", "PBM E-score of 8-mer": "-0.183 ± 0.046"},
      {"sequence": "CTCGTGAC", "PBM E-score of 8-mer": "0.195 ± 0.027"},
      {"sequence": "ACGACCAA", "PBM E-score of 8-mer": "-0.174 ± 0.0045"},
      {"sequence": "GGACCTAC", "PBM E-score of 8-mer": "-0.168 ± 0.0051"},
      {"sequence": "CACAGAGG", "PBM E-score of 8-mer": "0.0136 ± 0.014"},
      {"sequence": "ACACTTCG", "PBM E-score of 8-mer": "0.409 ± 0.0085"},
      {"sequence": "CCTGGCCG", "PBM E-score of 8-mer": "-0.106 ± 0.028"},
      {"sequence": "AAATTTCT", "PBM E-score of 8-mer": "-0.224 ± 0.1"},
      {"sequence": "CCTATGCA", "PBM E-score of 8-mer": "-0.195 ± 0.048"},
      {"sequence": "GCTTGGAA", "PBM E-score of 8-mer": "-0.304 ± 0.047"},
      {"sequence": "AGGTAATG", "PBM E-score of 8-mer": "-0.19 ± 0.11"},
      {"sequence": "AATTTAAA", "PBM E-score of 8-mer": "-0.142 ± 0.0048"},
      {"sequence": "CCACACGC", "PBM E-score of 8-mer": "0.264 ± 0.039"},
      {"sequence": "GACCACGC", "PBM E-score of 8-mer": "0.102 ± 0.094"},
      {"sequence": "TCTCGCCA", "PBM E-score of 8-mer": "0.238 ± 0.035"},
      {"sequence": "CGTGCTAC", "PBM E-score of 8-mer": "0.128 ± 0.0037"},
      {"sequence": "ACCTGGTC", "PBM E-score of 8-mer": "-0.0159 ± 0.014"},
      {"sequence": "CAAGTAAA", "PBM E-score of 8-mer": "-0.0256 ± 0.017"},
      {"sequence": "CGTTGTTC", "PBM E-score of 8-mer": "-0.116 ± 0.067"},
      {"sequence": "CTGGTAGA", "PBM E-score of 8-mer": "-0.113 ± 0.059"},
      {"sequence": "CGGGGTAA", "PBM E-score of 8-mer": "-0.0503 ± 0.11"},
      {"sequence": "CCATCCAA", "PBM E-score of 8-mer": "-0.236 ± 0.026"},
      {"sequence": "CATTCGGA", "PBM E-score of 8-mer": "-0.368 ± 0.051"},
      {"sequence": "ACAATTTC", "PBM E-score of 8-mer": "-0.049 ± 0.014"},
      {"sequence": "ATCTGCCG", "PBM E-score of 8-mer": "-0.21 ± 0.071"},
      {"sequence": "GCTTCCGA", "PBM E-score of 8-mer": "-0.23 ± 0.022"},
      {"sequence": "CTCTGTAA", "PBM E-score of 8-mer": "0.0333 ± 0.012"},
      {"sequence": "ATATGGTG", "PBM E-score of 8-mer": "0.167 ± 0.012"},
      {"sequence": "GACCAGTA", "PBM E-score of 8-mer": "-0.334 ± 0.0039"},
      {"sequence": "CCAACTTC", "PBM E-score of 8-mer": "-0.0265 ± 0.019"},
      {"sequence": "ACCCCCAG", "PBM E-score of 8-mer": "-0.141 ± 0.027"},
      {"sequence": "GTGAATTA", "PBM E-score of 8-mer": "0.2537 ± 0.00099"},
      {"sequence": "CTTAGAGC", "PBM E-score of 8-mer": "-0.154 ± 0.046"},
      {"sequence": "AGCTTCCA", "PBM E-score of 8-mer": "-0.199 ± 0.044"},
      {"sequence": "ACAGAGGT", "PBM E-score of 8-mer": "0.109 ± 0.051"},
      {"sequence": "CGTTGAAC", "PBM E-score of 8-mer": "-0.0986 ± 0.0057"},
      {"sequence": "GGGTGGTA", "PBM E-score of 8-mer": "0.11 ± 0.029"}
    ]}
  ]
}
